Source: patent US20240336638A1, “IMIDAZOLE COMPOUND, AND INTERMEDIATE AND APPLICATION THEREOF” (priority 2021, published 2024)
The name of at least one read-out is uncertain.

Legend:
[1] = tested on: AA-induced platelet aggregation; test: Inhibitory effect on AA-induced platelet aggregation in rabbits in vitro; assay type: cell-based, rabbit; settings: AA 80 M; for Aggregation rate: max within 4 minutes, mean ± SD, n = 5; for Inhibition rate (%): vs AA model group
Method: (§1) Several experimental groups were established, including a blank control group, an AA model control group, and various test compounds. Each test compound had three concentration groups: 10^−3 M, 10^−4 M, and 10^−5 M.
(§2) Rabbits were anesthetized with a 20% urethane solution (5 mL/kg body weight) through intraperitoneal injection. After being fixed in a supine position, the skin of the neck was cut about 6 cm, bluntly separated with a hemostat, and the trachea was exposed after the common carotid artery was separated. The distal end of the common carotid artery was ligated with a fine thread, and the proximal end was clamped with an arterial clamp for vascular intubation. After the intubation was fixed, the artery clamp was opened, and the blood was placed into a blood collection tube containing 3.8% trisodium citrate so that the blood was mixed well with the 3.8% trisodium citrate in a volume ratio of 9:1.
The prepared anticoagulant blood was mixed well and centrifuged for 10 minutes at 500 rpm, and the upper layer of plasma was aspirated, then platelet-rich plasma (PRP) was obtained, and the remaining anticoagulant blood was centrifuged for 15 minutes at 3,000 rpm, followed by aspirating the supernatant to obtain platelet-poor plasma (PPP).
First, 300 μL of PPP was added to the test cup and put into the test wells, and calibrated by pressing the “PPP” key. Subsequently, 240 μL of the washed platelets were added to the test cup, then added with 30 μL of different concentrations of drug solution, incubated for 10 minutes at 37° C. in a preheated bath, and then put into the test wells. 3 μL of 100× CaCl2) solution (final concentration of 0.2 g/L) and 30 μL of inducer (final concentration of AA of 80 µM) were added to the test wells, and then the “Start” key was pressed immediately. The maximum aggregation rate within 4 minutes was measured. Measurements were repeated five times for each drug concentration.
(§3) The platelet aggregation inhibition rate was calculated with the following formula:
Inhibition rate (%)=(maximum aggregation rate in the AA model control group−maximum aggregation rate in the administration group)/maximum aggregation rate in the AA model control group×100%
All data were expressed as mean standard deviation (mean b SD). SPSS 22.0 software was used for statistical analysis of the data. Intergroup data were analyzed using one-way ANOVA, with P<0.05 considered as statistically significant and P<0.01 considered as highly significant.

[2] = tested on: AA-induced platelet aggregation; test: Inhibitory effect on AA-induced platelet aggregation in rats in vitro (washed platelets); assay type: cell-based, rat; settings: at 4 minutes, AA 800 μM; for Aggregation rate: mean ± SD, n = 3; for Inhibition rate (%): vs AA model group
Method: as §1, with “AA (arachidonic acid)” for “AA”, “M. The data from the blank and model control group were shared among the different drug concentration groups as a control.” for “M.”
as §2, with “Male SD rats” for “Rabbits”, “3% chloral hydrate (300 mg/kg)” for “a 20% urethane solution (5 mL/kg body weight)”, “3” for “6”
The prepared anticoagulant blood was mixed well and centrifuged for 10 minutes at 500 rpm, then the upper layer of plasma was aspirated to obtain platelet-rich plasma (PRP), and the PRP was centrifuged again for 5 minutes at 3,000 rpm. The supernatant was discarded, and the platelet precipitate was obtained, which was washed once with Ca^2+-free HEPES-Tyrode's buffer, then centrifuged at 3,000 rpm for 5 minutes. The supernatant was discarded, and the platelets were resuspended with Ca^2+-free HEPES-Tyrode's buffer to obtain the washed platelets.
First, 300 μL of Ca^2+-containing HEPES-Tyrode's solution was taken into the test cup, put into the test wells, and calibrated by pressing the “PPP” key. Subsequently, 240 μL of the washed platelets were added to the test cup, then added with 30 μL of different concentrations of drug solution, incubated for 10 minutes at 37° C. in a preheated bath, and then put into the test wells. 3 μL of 100× CaCl2 solution (final concentration of 0.2 g/L) and 30 μL of inducer (final concentration of AA of 800 μM) were added to the test wells, and then the “Start” key was pressed immediately. The maximum aggregation rate was recorded every 60 s. The measurement was repeated three times for each concentration for 10 minutes, and the aggregation curve was plotted.
as §3
Inhibition rate (%)=(maximum aggregation rate in the model control group−maximum aggregation rate in the administration group)/maximum aggregation rate in the model control group×100%
All data were expressed as mean±standard deviation (mean±SD). SPSS 22.0 software was used for statistical analysis of the data. Intergroup data were analyzed using one-way ANOVA, with P<0.05 considered as statistically significant and P<0.01 considered as highly significant.

O=C(O)C1CN(c2ccc(Cn3ccnc3)cn2)C1 [Compound 57, 1-(5-((1H-Imidazol-1-yl)methyl)pyridin-2-yl)azetidine-3-carboxylic acid]
Aggregation rate ([1]; Table 3, 1 * 10^−3 M): 15.4 ± 5.0
Inhibition rate (%) ([1]; Table 3, 1 * 10^−3 M): 71.6%
Aggregation rate ([1]; Table 3, 1 * 10^−4 M): 38.8 ± 12.0
Inhibition rate (%) ([1]; Table 3, 1 * 10^−4 M): 28.1%
Aggregation rate ([1]; Table 3, 1 * 10^−5 M): 43.0 ± 11.6
Inhibition rate (%) ([1]; Table 3, 1 * 10^−5 M): 20.4%

O=C(O)/C=C/c1ccc(Cn2cnc(Cl)c2)nc1 [Compound 58, (E)-3-(6-((4-Chloro-1H-imidazol-1-yl)methyl)pyridin-3-yl)acrylic acid]
Aggregation rate ([1]; Table 3, 1 * 10^−3 M): 42.6 ± 7.9
Inhibition rate (%) ([1]; Table 3, 1 * 10^−3 M): 21.2%
Aggregation rate ([1]; Table 3, 1 * 10^−4 M): 43.6 ± 5.2
Inhibition rate (%) ([1]; Table 3, 1 * 10^−4 M): 19.2%
Aggregation rate ([1]; Table 3, 1 * 10^−5 M): 49.7 ± 7.0
Inhibition rate (%) ([1]; Table 3, 1 * 10^−5 M): 8.0%

O=C(O)/C=C/c1ccc(Cn2cnc(Cl)c2)cn1 [Compound 59, (E)-3-(5-((4-Chloro-1H-imidazol-1-yl)methyl)pyridin-2-yl)acrylic acid]
Aggregation rate ([1]; Table 3, 1 * 10^−3 M): 12.9 ± 4.0
Inhibition rate (%) ([1]; Table 3, 1 * 10^−3 M): 76.1%
Aggregation rate ([1]; Table 3, 1 * 10^−4 M): 35.1 ± 9.9
Inhibition rate (%) ([1]; Table 3, 1 * 10^−4 M): 35.0%
Aggregation rate ([1]; Table 3, 1 * 10^−5 M): 46.8 ± 3.2
Inhibition rate (%) ([1]; Table 3, 1 * 10^−5 M): 13.3%

O=C(O)/C=C/c1ccc(Cn2ccnc2)cc1 [Ozagrel, reference compound]
Aggregation rate ([1]; Table 2, 1 * 10^−3 M): 22.2 ± 5.1
Inhibition rate (%) ([1]; Table 2, 1 * 10^−3 M): 44.3%
Aggregation rate ([1]; Table 2, 1 * 10^−4 M): 27.0 ± 2.6
Inhibition rate (%) ([1]; Table 2, 1 * 10^−4 M): 32.3%
Aggregation rate ([1]; Table 2, 1 * 10^−5 M): 34.6 ± 4.2
Inhibition rate (%) ([1]; Table 2, 1 * 10^−5 M): 13.1%
Aggregation rate ([1]; Table 3, 1 * 10^−3 M): 24.5 ± 5.2
Inhibition rate (%) ([1]; Table 3, 1 * 10^−3 M): 54.6%
Aggregation rate ([1]; Table 3, 1 * 10^−4 M): 31.4 ± 4.7
Inhibition rate (%) ([1]; Table 3, 1 * 10^−4 M): 41.9%
Aggregation rate ([1]; Table 3, 1 * 10^−5 M): 45.6 ± 4.4
Inhibition rate (%) ([1]; Table 3, 1 * 10^−5 M): 15.6%
Aggregation rate ([2]; 1 * 10^−3 M): 13.2 ± 1.8
Inhibition rate (%) ([2]; 1 * 10^−3 M): 68.0%
Aggregation rate ([2]; 1 * 10^−4 M): 34.8 ± 3.1
Inhibition rate (%) ([2]; 1 * 10^−4 M): 15.5%
